The values below come from the RNAGym collection of RNA variant scans (doi:10.7554/elife.90254).

The source gives no read counts; variants with many changes may rest on few reads.

Sequences and labels used below:
B1: LINE1-full (parent)
chain: UACGUAGGUGGUUUUCCCCUGAUAGUGCUAAGGGGGCCUGGAAGUUUGGACUGGGCAGAGCUCAACACAGCGUGGCAAAGUGGCUGUGGCUAGACUGCCUCUCUGGAUUCCUCGUCACUCAGCAGGGCAUCUCUGAGAGAAAUGCC

The variants in the data set derive from B1. In words: self-cleavage, relative activity (ratio to wild type); higher = more cleavage; in vitro, sequencing; the parent is a self-cleaving ribozyme.
As for U9C A24G A42G U143C, the self-cleavage was found to be 1.23.

For U5C G7A A24C U143C, the self-cleavage is 1.15.

For A6G U15C C66A U100A, the self-cleavage worked out at 0.

With A43C U119A A138G, the self-cleavage was determined as 1.97.

As to G33A A50G U73C A107U, the self-cleavage is 2.3.

Turning to C18U G49A C146U, the self-cleavage is 1.07.

In the case of U47C U102A A138G, the self-cleavage was found to be 2.53.

With A42G C113U A138G, the self-cleavage turned out to be 0.44.

For U15C U87A U96C A129G, the self-cleavage was 0.64.

In the case of U100C U132G U134A A141G, the self-cleavage worked out at 1.62.

A69G U112C U115A: the self-cleavage was determined as 1.21.

G40A A129U A142G: the self-cleavage was found to be 1.68.

Consider A22G A24G U112A, for which the self-cleavage turned out to be 0.85.

On to U15C U23A U73A, for which the self-cleavage was 1.21.

With U9A A43G U62A A92U A121U, the self-cleavage came out at 0.

As for G53A G105U A124G U132C, the self-cleavage stood at 1.42.

Take U46C G60U A65G A140G: the self-cleavage worked out at 0.

Regarding U47A A50G U85C, the self-cleavage came out at 0.1.

As for U62C A69U U100C, the self-cleavage amounted to 0.11.

As for U14C A69U A79U U96A, the self-cleavage is 0.12.

As for U20C A117U A138U, the self-cleavage turned out to be 1.64.

As for A6G U85C A141G, the self-cleavage was found to be 0.4.

For G34A A50G G54A G106U, the self-cleavage turned out to be 0.07.

For the variant A42C U108C A129U, the self-cleavage worked out at 0.

G21A U46A A117G: the self-cleavage was determined as 1.45.

On to U62C U115C A138G, for which the self-cleavage was 0.

In the case of U29C A117G A124U, the self-cleavage worked out at 1.84.

Consider G7U U13C U46C A69U U91C, for which the self-cleavage is 0.

Regarding U73A G106C A142G, the self-cleavage turned out to be 1.43.

For the variant U12G U39C U143A, the self-cleavage was found to be 0.4.

Turning to U1A G21A U85C U109A G125U A142G, the self-cleavage amounted to 0.

For the variant A2U A6U A77G A142G, the self-cleavage is 1.34.

In the case of U14C U20C A79G U102C, the self-cleavage is 0.

In the case of U96C A124G U132C, the self-cleavage was 0.

In the case of U73A U100C U132C, the self-cleavage was 2.82.

With U62C U108C C145A, the self-cleavage stood at 0.07.

With U5C A92G U109C A121G U143A, the self-cleavage was 0.

On to U9C U29C U87A A141G, for which the self-cleavage worked out at 0.17.

As for A2G U5C U109C, the self-cleavage came to 0.46.

For U12G A31G U62C U73C U112A, the self-cleavage was determined as 0.

Regarding A78G A121G G135A, the self-cleavage came out at 2.32.

For the variant G32A A77U A141G, the self-cleavage came out at 1.56.

With U14A U26A U45C, the self-cleavage was 0.55.

In the case of A50G U104C G105U U134C, the self-cleavage is 1.6.

As to A30G G34U C118G, the self-cleavage came to 0.86.

In the case of U13C A79U A142G, the self-cleavage was 2.39.

Regarding A6G U91A A138G A142G U143C, the self-cleavage is 2.12.

U26A G33A U102C A124G: the self-cleavage was found to be 0.86.

For G7U U14C C95U, the self-cleavage was found to be 0.08.

Consider U39C G82A A117U U143C, for which the self-cleavage worked out at 1.32.

U73G A78G U109C: the self-cleavage was found to be 0.35.

Regarding U87A G106U A129G, the self-cleavage came to 0.05.

As for A65G A94C U100C, the self-cleavage came out at 0.

Regarding A6G U87A A92G, the self-cleavage came to 0.12.

For G44U A64G A136U, the self-cleavage was determined as 0.26.

Take U62C U96C U108C: the self-cleavage worked out at 0.

For U85G U87G A136G, the self-cleavage was found to be 0.39.

In the case of U9C U46A A129G, the self-cleavage came to 1.67.

U20C U39C A57U G127A U143A: the self-cleavage was 0.11.

In the case of A2G A42G U102A, the self-cleavage was found to be 1.53.

For the variant U13C U29C A57U, the self-cleavage came to 0.36.

Regarding A43G A67U C128U, the self-cleavage is 0.12.

Turning to A30G U39A G49U, the self-cleavage was 0.8.

Consider U39C A64G U104G, for which the self-cleavage amounted to 0.

As to G32A A59U G89A U112C A129G, the self-cleavage stood at 0.04.

In the case of U29C A31G U96A A141G, the self-cleavage stood at 0.14.

In the case of G54A C118U G125U, the self-cleavage is 0.67.

As for A69G U109A A124U A141G, the self-cleavage was found to be 0.36.

For A31U U47C A65G U102C, the self-cleavage came to 0.

For the variant A69U U108C A129U, the self-cleavage amounted to 0.09.

For G53A A69U U96C U112C, the self-cleavage was 0.04.

For A57U A79U A142G, the self-cleavage was 0.14.

For the variant A78G A124U A129G, the self-cleavage stood at 1.32.

Consider U62G A77U G93A, for which the self-cleavage is 0.04.

Take U9A A69G U100C: the self-cleavage is 0.97.

Consider A24U U46G U73A, for which the self-cleavage was 1.67.

In the case of U13C A64C U143C, the self-cleavage stood at 0.56.

Consider U29A U100C U134C, for which the self-cleavage came out at 0.44.

Consider G4C G21U G32A G86A, for which the self-cleavage was 0.25.

Turning to U20A U29C A57U, the self-cleavage turned out to be 0.24.

For the variant A77U A117G A142G, the self-cleavage amounted to 1.18.

As for U45C A59G U134C A138G, the self-cleavage came out at 0.

For A50G U104C A142G, the self-cleavage turned out to be 0.8.

As to U47C A64G G72A, the self-cleavage was 0.33.

Take A94G A121U A141G: the self-cleavage came to 0.41.

Turning to U5C A22G A78G U119C A129U, the self-cleavage was 1.37.

Regarding U46C C66U A142U, the self-cleavage worked out at 0.05.

G36A U73C U85C: the self-cleavage came to 0.05.

For the variant U62C A77U A121C, the self-cleavage was found to be 0.02.

As to U14C U23A G88A A140G, the self-cleavage was 0.07.

In the case of U29C U46C U62G C123U, the self-cleavage was determined as 0.

As for G70U U104G U112C, the self-cleavage came out at 0.04.

Take G74A A78G U104A: the self-cleavage came to 1.12.

In the case of A42G U46C A142G, the self-cleavage is 1.5.

Turning to A42G A50G A79U U85C, the self-cleavage was 0.59.

As for A6U U14C G40U A69G A92U U112A A138U U143A, the self-cleavage was 0.16.

In the case of U13C A94U U102C A140G, the self-cleavage is 0.89.

Regarding U12A U62C U85A A141G, the self-cleavage is 0.08.

Regarding A31U A57G A67U G83U, the self-cleavage came out at 0.13.

On to G7A A64U U115A A141G, for which the self-cleavage worked out at 0.46.

U15C U104C G126A: the self-cleavage stood at 1.49.

A65G C71U A136C: the self-cleavage was determined as 0.05.

Regarding U13C U119C A140U, the self-cleavage was found to be 1.87.

For A65G A77G A129G A142G, the self-cleavage turned out to be 0.44.

For U15C U46C A69G, the self-cleavage amounted to 0.26.

In the case of G74A A94G U130C, the self-cleavage turned out to be 0.12.

A43G U52A A121C: the self-cleavage amounted to 1.

With U12C A42G G58U, the self-cleavage is 0.08.

As to U1C G4C U12G A30G U100A, the self-cleavage came to 0.86.

U46C A121U G126A: the self-cleavage was found to be 1.8.

For the variant U85C U102C G135U, the self-cleavage stood at 0.23.

In the case of U9C G33A U102C G135U, the self-cleavage is 1.21.

For the variant U62C A117G A138G U143C, the self-cleavage turned out to be 0.

For the variant U15A U85C C99U, the self-cleavage came out at 0.14.

For G8A U20A G21U U45C U47C, the self-cleavage amounted to 0.94.

Turning to A43G C66U U100C A136G, the self-cleavage is 0.05.

For A2G U5A A67G U104C A140G, the self-cleavage was 1.84.

Turning to A69U A92G G139A, the self-cleavage was 0.07.

In the case of A22G U26A A77G, the self-cleavage turned out to be 1.75.

Regarding G7U U62C A136G, the self-cleavage was determined as 0.02.

In the case of U14C U108C U119A, the self-cleavage was determined as 2.24.

Turning to U14C A77G U143C, the self-cleavage was 2.15.

On to U9C G72C C128U, for which the self-cleavage was 0.99.

On to C16A U39C A77U U115C, for which the self-cleavage was 0.92.

On to U26A A43U U45C, for which the self-cleavage is 1.75.

Regarding A50U A117U A129G, the self-cleavage was 1.19.

Take G33U U45C U109C A121G G127U: the self-cleavage came out at 2.6.

Take U15C U23A U29C C38U G60U: the self-cleavage was 0.15.

As for A2C U39C C71U U132C U143C, the self-cleavage came to 0.4.

For A64U U96A U119C U130C A140G, the self-cleavage worked out at 0.

Take U20C A92G U100C: the self-cleavage worked out at 0.35.

U73A U100C U130C A140G: the self-cleavage worked out at 2.1.

Take U45C A77U U100A: the self-cleavage was determined as 1.06.

As for A43G A77G U112C U130C, the self-cleavage was found to be 2.12.

With U14C U115C A140G, the self-cleavage was 0.84.

As for U13C U14A A24G U73A U115C A117U U132C, the self-cleavage was determined as 1.05.

For the variant A78G G88A A117U, the self-cleavage came to 0.06.

On to U15A U96A C123U, for which the self-cleavage came to 0.04.

On to U13C G21A A79G A107G A138G, for which the self-cleavage turned out to be 0.

For the variant C51U U62A A67U A92U U108C A142G, the self-cleavage worked out at 0.02.

For the variant U46C A94G U102A U130C, the self-cleavage was 0.

For A6U U39C A67U A121U, the self-cleavage was determined as 0.5.

With U5C U73C A121U, the self-cleavage was 0.77.

In the case of G34A A42G U102G, the self-cleavage worked out at 0.82.

For the variant A50G U96A U108C, the self-cleavage was 0.05.

For the variant A43G U91C U119C A140U, the self-cleavage was 0.

For U14C C16U U39C, the self-cleavage is 1.69.

Regarding U9C U13C G33A A42U C101U, the self-cleavage came out at 1.35.

Consider U14C C18A U46C U112C, for which the self-cleavage was found to be 1.13.

Take U12C A121G A124U: the self-cleavage was 1.84.

With A57G U62C A79G A129G, the self-cleavage is 0.

With U62G A69C U104C, the self-cleavage was found to be 0.54.

On to U9A U39C U73C A117U U143A, for which the self-cleavage turned out to be 1.8.

Turning to U12C A22U A136G, the self-cleavage is 0.78.

On to U23C A24C A64G A65G, for which the self-cleavage is 0.

As for U45C U100C A140G, the self-cleavage was 1.1.

As to A57G A67U U109C A121G, the self-cleavage was 0.

On to U15C U87A U102A, for which the self-cleavage stood at 0.06.

Take A50G A77U A78G A79G: the self-cleavage is 0.77.

U15A U91A A142G: the self-cleavage was found to be 0.52.

Consider G36A A50G G58U, for which the self-cleavage was found to be 0.02.

In the case of U73C U87A U115C, the self-cleavage turned out to be 0.33.

Turning to U9A U12C G54A U73A U130C A142G, the self-cleavage came to 0.43.

Consider A30G A57G A121G, for which the self-cleavage stood at 2.04.

Take G75A A78U U104C A107G G114U A141G: the self-cleavage was 2.93.

As for U81A C128U A142G, the self-cleavage worked out at 2.09.

Consider A31G U112C A140G, for which the self-cleavage turned out to be 0.49.
